# Measured values from article PMC4336329 (PLoS ONE, 2015).
# In all, about 310,000 compounds went through this assay and about 2,200 (0.71%) showed an effect of 50% or more. Effects have a minus sign here. The list shows a part of the results.
# Molecular target: human ether-à-go-go-related gene (hERG) potassium channel (human, UniProt Q12809)
# Test: primary screen, population patch clamp on CHO cells stably expressing hERG
# human ether-à-go-go-related gene (hERG) potassium channel, sequence (Q12809 whole entry, looked up): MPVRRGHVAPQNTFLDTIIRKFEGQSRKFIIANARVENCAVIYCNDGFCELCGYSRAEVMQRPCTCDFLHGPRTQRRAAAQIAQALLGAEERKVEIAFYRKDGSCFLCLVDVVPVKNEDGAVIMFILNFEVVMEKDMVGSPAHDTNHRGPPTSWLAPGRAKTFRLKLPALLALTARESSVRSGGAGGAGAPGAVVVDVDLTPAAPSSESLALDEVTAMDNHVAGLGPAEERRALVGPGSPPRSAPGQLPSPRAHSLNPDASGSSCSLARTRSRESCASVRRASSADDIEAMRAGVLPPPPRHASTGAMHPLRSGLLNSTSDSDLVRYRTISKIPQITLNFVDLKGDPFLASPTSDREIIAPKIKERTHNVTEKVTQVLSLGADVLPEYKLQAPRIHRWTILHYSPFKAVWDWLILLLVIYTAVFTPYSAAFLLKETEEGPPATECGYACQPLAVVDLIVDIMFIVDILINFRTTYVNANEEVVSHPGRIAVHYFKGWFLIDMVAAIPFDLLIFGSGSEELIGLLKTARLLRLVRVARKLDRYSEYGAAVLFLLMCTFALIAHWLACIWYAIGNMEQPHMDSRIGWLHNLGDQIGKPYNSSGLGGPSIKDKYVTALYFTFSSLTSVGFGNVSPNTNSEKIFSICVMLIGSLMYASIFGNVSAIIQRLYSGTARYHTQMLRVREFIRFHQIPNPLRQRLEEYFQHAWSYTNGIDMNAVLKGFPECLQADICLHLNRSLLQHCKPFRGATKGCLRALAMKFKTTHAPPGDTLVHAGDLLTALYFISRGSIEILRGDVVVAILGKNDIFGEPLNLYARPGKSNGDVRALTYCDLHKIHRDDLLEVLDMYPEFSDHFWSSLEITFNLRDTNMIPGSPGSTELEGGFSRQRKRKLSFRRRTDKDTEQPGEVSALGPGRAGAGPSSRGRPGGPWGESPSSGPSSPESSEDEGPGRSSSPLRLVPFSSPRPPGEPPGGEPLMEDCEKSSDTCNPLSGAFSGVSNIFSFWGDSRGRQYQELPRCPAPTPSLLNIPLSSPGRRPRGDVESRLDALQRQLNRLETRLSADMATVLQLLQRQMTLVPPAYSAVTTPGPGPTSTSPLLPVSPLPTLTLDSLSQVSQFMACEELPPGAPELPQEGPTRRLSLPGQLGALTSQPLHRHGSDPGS
row,SMILES,"hERG current change (%, negative = inhibition) at 1uM"
1,CNC1=CC(=O)CC(c2ccccc2)C1 (centres unmarked),12.4%
2,COCCNC(=O)Cc1ccc(Br)cc1,10.2%
3,CCOc1ccc(/C=N/NC(=O)c2cc3c(OC)cc(OC)c(OC)c3[nH]2)cc1,-5.65%
4,CCOC(=O)/C(=C/Nc1ccc(F)c(F)c1)[N+](=O)[O-],13%
5,CCN(CC)S(=O)(=O)c1cccc(-c2nnc(SCc3nnc(-c4ccccc4)o3)n2C)c1,-32.5%
6,CCOc1ccccc1NC(=O)Cn1[nH]c(=O)c2ccccc2c1=O,14.2%
7,COCCCn1nnnc1SCC(=O)N1CCCC1,-6.33%
8,Cc1ccc2nc(N3CCOCC3)c(C=O)c(=O)n2c1,11.4%
9,CCOc1ccc(/C=N/NC(N)=S)cc1,6.4%
10,CC(=O)C[C@H](O)CC(=O)[C@H]1OC(=O)CC/C=C\Cc2ccccc21,15.5%
11,CCC(CC)C(=O)N1CC(=O)Nc2ccc(F)cc2C1c1ccccc1 (centres unmarked),6.38%
12,CC(=O)Nc1ccc(Nc2nc(Cl)nc(Nc3ccc(NC(C)=O)cc3)n2)cc1,14.6%
13,COc1ccc(OC)c(NC(=O)C(CCSC)NS(=O)(=O)c2cccs2)c1 (centres unmarked),-5.09%
14,O=C(c1ccccc1)N(Cc1nc2ccccc2c(=O)[nH]1)C1CCCCC1,6.55%
15,O=C(Nc1nccs1)C1CCCN1S(=O)(=O)c1cccc2cccnc12 (centres unmarked),4.95%
16,O=C(CN1C(=O)c2ccccc2S1(=O)=O)Nc1ccccc1,-2.85%
17,CCOC(=O)CC1=NS(=O)(=O)c2ccccc2N1,14.9%
18,O=C(NCc1ccc2c(c1)OCO2)C1CCC(CNS(=O)(=O)c2ccccc2)CC1 (centres unmarked),-0.201%
19,CC[C@@H](C)CN1C(=O)N[C@@H](CCc2ccccc2)C(C(C)=O)=C1C,-1.83%

row,SMILES,"hERG current change (%, negative = inhibition) at 1uM"
1,CC(C)NC(=O)N(Cc1ccccc1)Cc1cccs1,12.8%
2,CC(=O)Oc1cccc(/C=N\NC(=O)C(=O)N/N=C/c2cccc(OC(C)=O)c2)c1,8.12%
3,COc1cc(CNCCO)cc(Br)c1OCc1cccs1.Cl,7.27%
4,CCOc1ccccc1N(CC(=O)NC(C)(C)C)C(=O)CCC(=O)Nc1nccs1,6.2%
5,Cc1cccc(C(CC(=O)NCc2ccco2)c2ccccc2)c1O (centres unmarked),-3.67%
6,CC(=O)Nc1ccc(/C=N/Nc2ccc(C(=O)c3c(C)cc4ccccn34)cc2[N+](=O)[O-])cc1,11.7%
7,C=CCn1c(O)c(N=Nc2nc3ccccc3c(=O)n2-c2ccccc2)c2ccccc21,12.3%
8,CC(NS(=O)(=O)c1c(N)n(C)c(=O)n(C)c1=O)c1ccccc1 (centres unmarked),21.5%
9,O=C(NCCCCc1ccccc1)c1cccc([N+](=O)[O-])c1,8.9%
10,COCCCNC(=O)c1ccccc1N(Cc1ccccc1)S(=O)(=O)c1ccc(OC)cc1,12.9%
11,O=C(NC12CCC(O)C(SC1)/C2=N/O)c1ccccc1 (centres unmarked),6.76%
12,CC(C)CNC(=O)CSc1nc2nn(-c3ccccc3)c(=O)c-2c2n1CCCCC2,3.92%
13,Cc1c(C(=O)OCC(=O)NCc2ccccc2)oc2ccccc12,10.9%
14,COc1ccc([N+](=O)[O-])cc1NC(=O)C(C)OC(=O)c1cccnc1 (centres unmarked),6.16%
15,COc1cc(OC)c2c(=O)cc(-c3cccnc3)oc2c1,8.68%
16,COc1ccc(OC)c(/C=C2\SC(=S)N(NS(=O)(=O)c3ccc(C)cc3)C2=O)c1,11.1%
17,CSCCC(NC(=O)c1ccc([N+](=O)[O-])cc1Cl)C(=O)OCC(=O)C12CC3CC(CC(C3)C1)C2 (centres unmarked),8.1%
18,COC(=O)[C@@]1(Cc2ccccc2)C=C[C@@H](C)N1C(C)=O,12.1%
19,Cc1onc(-c2ccccc2)c1C(=O)Nc1ccc(S(=O)(=O)N2CCOCC2)cc1,9.01%

row,SMILES,"hERG current change (%, negative = inhibition) at 1uM"
1,O=C(CSc1nnc(Cn2c(=O)sc3ccccc32)n1-c1ccccc1)NCC1CCCO1 (centres unmarked),6.6%
2,S=C(NCc1ccncc1)NC1CCCCC1,7.66%
3,Cc1nc(N2CCN(c3ccccn3)CC2)c2c(C)c(C(=O)Nc3ccc(F)cc3F)sc2n1,-4.3%
4,O=C(O)c1ccccc1OCCOCCOc1ccccc1C(=O)O,12.9%
5,O=c1cc(CO)oc(CN2CCCC2)c1O,-2.54%
6,C/C(=N\NC(=O)COc1cc(C)cc(C)c1)c1ccc(N2CCOCC2)cc1,9.1%
7,CN1CCN(S(=O)(=O)c2ccc(C(=O)Nc3ccccc3)cc2)CC1,-1.43%
8,Cc1cc(N2CCN(c3ccccc3)CC2)n2cc(-c3ccccc3)nc2n1,-16.4%
9,O=C(NCC(c1ccco1)N1CCN(c2ccccc2)CC1)c1ccco1 (centres unmarked),5.47%
10,Cc1ccc(CN2CCN(/N=C/c3ccc(O)c(O)c3)CC2)cc1,1.38%
11,O=C(CCCOc1ccc(Cl)cc1Cl)N1CCCc2ccccc21,-7.08%
12,CC(C)OCCCNc1ncc2c(n1)CC(c1ccc(N(C)C)cc1)CC2=O (centres unmarked),1.11%
13,CCCc1cc(C(=O)Nc2ccc(C(=O)OC)cc2)cs1,0.842%
14,N/C(CN1CCCCC1)=N\S(=O)(=O)c1cc(Cl)cc(Cl)c1,14%
15,CCCCCCCCC(=O)NNC(=O)c1c(O)c2ccccc2n(CC)c1=O,14.3%
16,CCC1(c2ccc(F)cc2)NC(=O)N(CC(=O)c2cc(C)n(C3CC3)c2C)C1=O (centres unmarked),-4.97%
17,Cc1cc(C)cc(N2CCCn3c2nc2c3c(=O)n(CC(=O)OCc3ccccc3)c(=O)n2C)c1,-9.51%
18,Cc1cc(C)n(-c2ncnc3sc4c(c23)CC(C)CC4)n1 (centres unmarked),34.2%
